Laboratory results taken from article PMC4336329 (PLoS ONE, 2015).
The whole screen tested about 310,000 compounds, of which about 2,200 (0.71%) showed an effect of 50% or more. Effects have a minus sign here. This is one part of the list.

molecular target: human ether-à-go-go-related gene (hERG) potassium channel (human, UniProt Q12809); assay: primary screen, population patch clamp on CHO cells stably expressing hERG
Sequence (Q12809 whole entry, looked up): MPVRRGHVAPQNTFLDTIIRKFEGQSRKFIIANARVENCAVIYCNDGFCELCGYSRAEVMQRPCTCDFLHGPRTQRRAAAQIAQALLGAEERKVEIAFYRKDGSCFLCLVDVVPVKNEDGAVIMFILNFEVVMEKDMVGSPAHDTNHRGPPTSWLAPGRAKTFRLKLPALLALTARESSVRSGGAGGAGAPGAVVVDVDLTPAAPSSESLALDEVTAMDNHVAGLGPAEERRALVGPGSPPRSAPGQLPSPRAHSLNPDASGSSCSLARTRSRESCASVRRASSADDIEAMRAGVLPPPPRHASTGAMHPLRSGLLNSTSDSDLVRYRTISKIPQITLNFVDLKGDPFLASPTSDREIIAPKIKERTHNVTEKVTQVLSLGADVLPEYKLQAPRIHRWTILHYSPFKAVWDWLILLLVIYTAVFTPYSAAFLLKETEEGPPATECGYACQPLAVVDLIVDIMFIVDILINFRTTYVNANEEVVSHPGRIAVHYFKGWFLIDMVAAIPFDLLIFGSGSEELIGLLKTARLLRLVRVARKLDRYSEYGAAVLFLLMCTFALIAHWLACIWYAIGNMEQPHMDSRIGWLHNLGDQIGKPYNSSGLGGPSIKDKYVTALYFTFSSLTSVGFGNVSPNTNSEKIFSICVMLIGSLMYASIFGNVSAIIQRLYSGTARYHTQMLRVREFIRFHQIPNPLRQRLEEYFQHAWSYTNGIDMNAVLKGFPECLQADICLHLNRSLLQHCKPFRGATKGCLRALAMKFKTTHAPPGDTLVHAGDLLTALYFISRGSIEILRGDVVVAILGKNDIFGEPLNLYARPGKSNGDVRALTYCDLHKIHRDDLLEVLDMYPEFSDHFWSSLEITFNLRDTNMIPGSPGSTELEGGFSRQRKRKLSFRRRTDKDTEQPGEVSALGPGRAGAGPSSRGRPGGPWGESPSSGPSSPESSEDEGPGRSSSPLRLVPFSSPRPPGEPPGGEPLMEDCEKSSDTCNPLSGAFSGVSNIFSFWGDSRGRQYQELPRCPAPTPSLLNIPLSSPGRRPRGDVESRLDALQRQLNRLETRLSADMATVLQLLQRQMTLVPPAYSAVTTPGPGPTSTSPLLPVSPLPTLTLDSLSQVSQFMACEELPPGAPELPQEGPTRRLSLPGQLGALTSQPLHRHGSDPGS

| SMILES | hERG current change (%, negative = inhibition) at 1uM [%] |
| --- | --- |
| CC(C)CCNC(=O)CN(C(=O)CCC(=O)Nc1ccccn1)c1ccc2c(c1)OCCO2 | 3.63 |
| Cc1ccccc1CSc1nnnn1-c1ccc(C(N)=O)cc1 | 11.6 |
| COC(=O)CCC(=O)NC(=S)Nc1sc(C)c(C)c1C(N)=O | 8.93 |
| CCN(CC)C(=O)Cn1cnc2c1c(=O)n(C)c(=O)n2C | -4.8 |
| NS(=O)(=O)c1ccc(NC(=O)CN2C(=O)CCC2=O)cc1 | 2.51 |
| CCCn1c(SCC(=O)NCc2ccccc2)nnc1-c1ccncc1 | 11.1 |
| O=S(=O)(NCc1ccc2c(c1)OCO2)c1cnc[nH]1 | 15 |
| COc1ccc(NC(=O)CSc2nc(N3CCCCC3)nc(N3CCCCC3)n2)cc1 | 7.24 |
| COc1ccccc1C(=O)NCC(=O)OCC(=O)c1ccc2c(c1)-c1ccccc1C2 | 4.07 |
| Cl.O=C1CCN=C(Nc2ccc(F)cc2)N1Cc1ccccc1 | -2.25 |
| COC(=O)c1ccccc1NC(=O)C1CCCN(S(=O)(=O)c2ccc(OC)cc2)C1 (stereo not shown) | 9.71 |
| O=C(Nc1cccc(S(=O)(=O)N2CCCCC2)c1)C1CC(=O)N(c2ccc3c(c2)OCCO3)C1 (stereo not shown) | 14.8 |
| CC(=O)Nc1cccc(NC(=O)CSc2nnc3ccc(-c4ccncc4)nn23)c1 | -6.2 |
| CC(C)n1cc(/C=C2/NC(=O)NC2=O)c2ccccc21 | 8.64 |
| Cl.O=C(/C=C/c1cccc(OCc2ccccc2)c1)c1cccnc1 | 17.4 |
| FC(F)(F)c1nc(Oc2ccccc2)c2ccccc2n1 | 13.6 |
| COc1cccc(S(=O)(=O)NCc2ccc3c(c2)OCO3)c1 | -2.94 |
| Cc1cc2nc(SC(C)C(=O)O)[nH]c2cc1C (stereo not shown) | 24.1 |
| Cc1nn(CC(=O)Nc2ccccc2C(F)(F)F)c(=O)c2cccn12 | 9.96 |
| COc1ccc(OC)c(S(=O)(=O)N(C)CC(=O)N2CCN(c3ccc(F)cc3)CC2)c1 | -14.7 |
| CCOC(=O)N1CCN(S(=O)(=O)c2ccc([N+](=O)[O-])cc2)CC1 | 5.8 |
| CCN(CCO)c1cc(Cl)nc(SC)n1 | -8.84 |
| COc1ccc(S(=O)(=O)N2CCOCC2)cc1NC(=O)c1ccc(Cl)cc1 | 5.23 |
| CCc1ccc(N2CC(C(=O)Nc3ccc4c(c3)OCCO4)CC2=O)cc1 (stereo not shown) | -18.5 |
| CCC(=O)NC(=S)Nc1cccc(NC(=O)c2ccc(Cl)cc2Cl)c1 | 11.9 |
| Cl.N=c1sccn1CC(=O)Nc1ccc(Cl)c(S(=O)(=O)N2CCOCC2)c1 | -6.76 |
| O=C(O)CN(c1ccccc1)S(=O)(=O)c1cc(C(F)(F)F)cc(C(F)(F)F)c1 | 8.81 |
| O=C(COc1coc(CN2CCCc3ccccc32)cc1=O)Nc1ccc([N+](=O)[O-])cc1 | 11.9 |

| SMILES | hERG current change (%, negative = inhibition) at 1uM [%] |
| --- | --- |
| O=C(c1ccccc1SCc1ccc(F)cc1)N1CCOCC1 | 22.6 |
| COc1ccc(-c2sc(Nc3ccccc3)n[n+]2-c2ccc(F)cc2)c(C)c1C.[Cl-] | -26.7 |
| CCCSC(=O)N(CC)CC(=O)Nc1c(CC)cccc1CC | 7.75 |
| COc1cccc(CCNC(=O)CC2C(=O)NCCN2Cc2ccc(Cl)c(F)c2)c1 (stereo not shown) | 6.19 |
| N#Cc1ccc(CSc2nnc(NC(=O)C3CCCO3)s2)cc1 (stereo not shown) | 6.13 |
| COCCn1c(=NC(=O)CSCC(=O)N2CCOCC2)sc2ccccc21 | 10.1 |
| COc1ccc(-c2cn3c(C)c(C(=O)NC(C)(C)C)sc3n2)cc1 | 8.29 |
| O=C(CCc1nnc(-c2ccccc2)o1)NCc1cc(F)ccc1F | 0.576 |
| COc1ccc(Cl)cc1NC(=O)CN(C)C(=O)c1cn2ccccc2n1 | 2.56 |
| O=C(COc1cc2oc(=O)c3c(c2cc1Cl)CCC3)Nc1ccc(CN2CCOCC2)cc1 | 15.1 |
| CCOc1ccc(C(=O)N2CCN(c3ncccn3)CC2)cc1 | 2.78 |
| Cc1ccc(-c2ccc(/C=N\NC(=O)c3cc4c(ccc5ccccc54)o3)o2)cc1[N+](=O)[O-] | 8.49 |
| Cc1cc(C)c(NC(=O)C(C)N2CCCCCC2)c(C)c1.Cl (stereo not shown) | -0.673 |
| O=C(NCc1nc2ccccc2[nH]1)C1=C[C@H](c2csc3ccccc23)C[C@H](OCc2ccc(CO)cc2)O1 | 8.07 |
| Nc1nc(CN2CCN(c3ccccc3F)CC2)nc(Nc2ccc3c(c2)OCCO3)n1 | -38 |
| O=S(=O)(NC1CC1)c1ccc(S(=O)(=O)N(Cc2ccccn2)C2CC2)cc1 | -1.98 |
| COc1ccc(NC(=O)Cn2nnc(C(=O)NCCc3ccc(OC)c(OC)c3)c2N)cc1 | 4.26 |
| COc1ccccc1C(=O)NCC(=O)N=Nc1c(O)n(C(C)C)c2ccccc12 | 4.82 |
| O=C(OCc1ccc([N+](=O)[O-])cc1)c1ccc2ccccc2n1 | 4.58 |
| Cc1nc2scc(C)n2c(=O)c1S(=O)(=O)NCCc1ccc(Cl)cc1 | 13.5 |
| COC(=O)c1ccc(N2CCCCC2)c(N)c1 | 5.36 |
| CCCCCCCCCCCC(=O)NC(Cc1ccc(OC)c([N+](=O)[O-])c1)C(=O)[O-].[NH4+] (stereo not shown) | 0.0132 |
| CS(=O)(=O)c1ccc2nc(NC(=O)C3=NN(c4ccccc4)C(=O)CC3)sc2c1 | -9.56 |
| COc1ccc(NC(=O)N2CCCC2C(=O)NCC2CCCCC2)cc1 (stereo not shown) | 11.1 |
| O=C(CSc1ccccc1)NC1=NCCS1 | 10.5 |
| CCC1=NC(c2ccccc2Cl)N(O)C1(C)C (stereo not shown) | 20.4 |
| CC1CCCN(C(=O)CSc2nnc(-c3ccncc3)n2C)C1 (stereo not shown) | 29.6 |
